# Results reported in PubChem BioAssay AID485364 (National Center for Advancing Translational Sciences (NCATS), 2010).
# Among all 360,000 compounds or so, about 11,000 (3.1%) were called active. The inconclusive results got no clear call from the source; some entries with a clear call stand among them for comparison. Calls follow the shape of the dose curve; as a rule, active = well fitted inhibition curve with a large enough effect; inconclusive = small, poorly fitted or top-dose-only effect; inactive = no such curve, though single readings can be large or run the other way. Potencies of inconclusive entries are left out as doubtful fits.
# Molecular target: Schistosoma mansoni thioredoxin glutathione reductase (TGR) (UniProt Q962Y6)
# Experiment: qHTS Assay for the Inhibitors of Schistosoma Mansoni Peroxiredoxins; also: nearly all actives have a fitted effect of over 60% in size
# Conditions: purified TGR, DTNB reduction, TNB absorbance 405 nm; series mostly up to 114 µM
# Outline: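 First, TGR (20 nM dispensed) and NADPH were mixed with compound. Second, a 15 min room-temperature incubation followed. Third, further NADPH and then DTNB were added to start the reaction. Finally, TNB absorbance was monitored kinetically.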
# Potency is read from the fitted curve at half-maximal effect; tags tell the direction and shape of the fitted curve.
row,SMILES,Potency
1,O=C1C(=O)c2ccccc2C(O)=C1CCCCl,"inconclusive [inhibitor, full curve]"
2,Cc1cc(C)cc(N=Cc2ccc([N+](=O)[O-])s2)c1,"inconclusive [inhibitor, partial curve]"
3,O=C(/C=C\c1ccco1)c1ccc(NC(=O)c2ccco2)cc1,active: 3.98 µM
4,CCOC(=O)c1cc2c(=O)n3ccccc3nc2n(Cc2ccco2)c1=NC(=O)c1ccc(Br)cc1,"inconclusive [inhibitor, full curve]"
5,COc1ccc(NC(=O)c2ccco2)cc1NC(=O)COc1cccc(C)c1C,"inconclusive [inhibitor, single point]"
6,Cc1cccc(C(=O)N2CCCC(Nc3ccc(F)c(F)c3)C2)n1 (stereo unspecified),"inconclusive [inhibitor, full curve, poor fit]"
7,O=C(CSc1oc(-c2ccccc2)nc1S(=O)(=O)c1ccc(Br)cc1)c1ccccc1,"inconclusive [inhibitor, single point]"
8,Cc1cc(N2Cc3ccccc3C2)ccc1C=O,"inconclusive [inhibitor, full curve, poor fit]"
9,COc1ccccc1S(=O)(=O)Cc1ccc(C(=O)NCc2cccnc2)o1,"inconclusive [inhibitor, partial curve]"
10,CC(C)(C)OC(=O)N/N=C/c1ccc(Br)cc1,inactive
11,O=C(NCc1ccccc1)C1CCN(c2nc(-c3ccccc3)nc3c2CCC3)CC1,inactive
12,OCc1cc(Br)ccc1OCc1nc2ccccc2s1,inactive
13,CC1(O)C[C@]2(C)N(O)C3CCCC[C@@H]3N2O1 (stereo partly specified),"inconclusive [inhibitor, partial curve]"
14,Cc1[nH]c2ccccc2c1C(=O)CN1CCSCC1,"inconclusive [inhibitor, partial curve]"
15,CCOC(=O)CN1C(=O)S/C(=C/c2ccco2)C1=O,"inconclusive [inhibitor, partial curve, poor fit]"
16,CC1CCCN(CCCNC(=O)Cn2ncc3c([nH]c4ccccc43)c2=O)C1 (stereo unspecified),inactive
17,Cc1ccccc1CNc1ncnc2cc(Cl)ccc12,"inconclusive [inhibitor, single point]"
18,Oc1ccc[n+](/C=C\c2ccccc2)c1,"inconclusive [inhibitor, partial curve]"
19,Cc1cccc(NC(=O)CN(C)S(=O)(=O)c2ccc(-c3ccc(=O)[nH]n3)s2)c1C,"inconclusive [inhibitor, full curve, poor fit]"
20,CCc1ccc(C2CC(=O)N3CN(c4ccccc4)CSC3=C2C#N)cc1 (stereo unspecified),active: 35.5 µM
21,c1cc(N2CCCC2)ccc1C(c1nnnn1C1CCCCC1)N1CCOCC1 (stereo unspecified),"inconclusive [inhibitor, partial curve]"
22,COc1ccccc1Nc1nc(N)nc(CN2CCc3ccccc3C2)n1,inactive
23,COc1cc2c(C(=O)N3CCN(C)CC3)c(CSc3ccccc3)n(C)c2cc1Br,"inconclusive [inhibitor, partial curve]"
24,Cc1ccc(C(NC(=O)c2ccccc2)C(Cl)(Cl)Cl)cc1 (stereo unspecified),inactive
25,COc1ccc(C(c2c(NC(=O)c3ccco3)sc(C)c2C)N2CCOCC2)cc1OC (stereo unspecified),"inconclusive [inhibitor, partial curve]"
26,COc1ccc(-c2nn3c(-c4ccccc4)nnc3s2)cc1,inactive

row,SMILES,Potency
1,CCO/C=C1/C(=O)N(c2ccccc2OC)C(=O)c2ccccc21,"inconclusive [inhibitor, partial curve]"
2,Cc1ccc(C(=O)N/C(=C\c2ccc(Cl)cc2)C(=O)NC2CCCCC2)cc1,inactive
3,CC(NC(=O)C(=O)N1CCCCC1)C(c1cccs1)N1CCN(c2ccccc2F)CC1 (stereo unspecified),"inconclusive [inhibitor, single point]"
4,O=C(NCc1ccccc1Cl)c1cccc(OC2CCN(C(=O)C3CC3)CC2)c1,"inconclusive [inhibitor, partial curve, poor fit]"
5,Cc1cc(SCC(=O)NC(=O)NCc2ccco2)nc2c(C)cccc12,"inconclusive [inhibitor, full curve]"
6,Cc1cc2cc(CN(C(=O)C3CC3)C3CCCC3)c3nnnn3c2cc1C,"inconclusive [inhibitor, single point]"
7,Cc1ccc2occ(C(c3nnnn3C3CCCC3)N3CCN(C(=O)c4ccco4)CC3)c(=O)c2c1 (stereo unspecified),active: 17.8 µM
8,Cc1cccc(NC(=O)Cn2c(=O)n(CCCCCC(=O)NCc3ccc4c(c3)OCO4)c(=O)c3sccc32)c1,inactive
9,Oc1c(C(c2ccco2)N2CCN(C(c3ccccc3)c3ccccc3)CC2)sc2ncnn12 (stereo unspecified),"inconclusive [inhibitor, full curve]"
10,O=C(CSc1nnc(-c2ccco2)o1)c1ccc[nH]1,active: 28.2 µM
11,O=[N+]([O-])CCO,"inconclusive [inhibitor, partial curve, poor fit]"
12,CCOC(=O)c1sc2nc(CC(=O)OC)nc(NCCN(CC)CC)c2c1C,inactive
13,COc1ccc(C2(CNC(=O)/C=C/c3ccco3)CCCC2)cc1OC,active: 3.55 µM
14,Cc1ccc([N+](=O)[O-])cc1N,inactive
15,O=C(Nc1ccccc1Cl)c1ccc([N+](=O)[O-])o1,"inconclusive [inhibitor, partial curve]"
16,CCc1nnc(NC(=O)c2ccc3c(c2)C(=O)N(C(C)(C)C)C3=O)s1,"inconclusive [inhibitor, full curve, poor fit]"
17,O=C(Nc1ccccc1)c1nc[nH]c1C(=O)O,"inconclusive [inhibitor, single point]"
18,O=C(NCc1ccccc1)C(=O)NCC(c1ccco1)S(=O)(=O)c1cccs1 (stereo unspecified),"inconclusive [inhibitor, partial curve]"
19,Cc1cc(C)c2c(CC(=O)Nc3ccccc3C(F)(F)F)coc2c1,inactive
20,Cc1ccccc1C(=O)NC(=S)NCCC1=CCCCC1,active: 5.01 µM
21,CCOC(=O)N1CCN(Cc2ccc(O)c3ncccc23)CC1,active: 0.282 µM
22,Cc1ccc(NS(=O)(=O)c2ccc3c(c2)NC(=O)C(C)C(=O)N3)cc1C (stereo unspecified),inactive
23,O=C(Cn1cnnn1)OCC(=O)c1ccc(Cl)s1,"inconclusive [inhibitor, full curve, poor fit]"
24,Cc1cc(C)c(S(=O)(=O)O)c(C)n1,"inconclusive [inhibitor, full curve]"
25,CC(/C=C/c1ccccc1F)=N\NC(=O)c1ccccc1,inactive
26,CCCCC(=O)OCC(=O)Nc1ccc(C)c(F)c1,inactive

row,SMILES,Potency
1,Cn1c(=O)c2c(nc(Oc3ccccc3Cl)n2Cc2ccc(C#N)cc2)n(C)c1=O,inactive
2,CCn1c(C)nc([N+](=O)[O-])c1Sc1ccc(F)cc1,active: 39.8 µM
3,CCOP(=O)(OCC)Oc1cc(C)c(N(C)C)c(C)c1,"inconclusive [inhibitor, partial curve]"
4,CN(CCc1ccccn1)C(=O)CC1C(=O)NCCN1Cc1cccc(F)c1 (stereo unspecified),"inconclusive [inhibitor, partial curve]"
5,COc1ccc(C2C(C#N)=C(/N=C/N3CCN(C)CC3)OC3=C2C(=O)CC(C)(C)C3)cc1OC (stereo unspecified),"inconclusive [inhibitor, full curve, poor fit]"
6,O=[N+]([O-])c1ccccc1-c1cc(-c2ccccc2O)n[nH]1,inactive
7,CCN1C(=O)[C@H]2[C@@H](c3ccc(-c4ccc5c(c4)OCO5)c(OC)c3)N[C@@](CC(C)C)(C(=O)OC)[C@H]2C1=O,active: 50.1 µM
8,Cc1ccc(CC(=O)NCCS(=O)c2ccc(C)cc2)cc1 (stereo unspecified),inactive
9,CC(C)OC(=O)C(C)Oc1ccc(C(=O)NCCc2ccccc2)cc1 (stereo unspecified),inactive
10,O=C(CCn1c(=S)[nH]c2cc3c(cc2c1=O)OCO3)NCc1ccccc1Cl,inactive
11,O=C(c1ccccc1)c1cc(F)c(N2CCOCC2)cc1Cl,inactive
12,COC(=O)N1C(=O)[C@](c2ccsc2)(C(C)C)N1C(=O)OC,active: 31.6 µM
13,Cc1ccccc1N1C(=O)c2sc3nc4c(c(=O)n3c2C1=O)CCC4,"inconclusive [inhibitor, full curve]"
14,O=C(NCCO)c1nc2ccccc2s1,inactive
15,CSc1nc(O)c(C(c2ccc(O)cc2)c2c(O)nc(SC)[nH]c2=O)c(=O)[nH]1,"inconclusive [inhibitor, partial curve, poor fit]"
16,COc1ccc(CCNC(=S)N2CCN(S(=O)(=O)c3cccc(F)c3)CC2)cc1,inactive
17,O=S(=O)(O)c1cccc(N=Nc2c(O)ccc3ccccc23)c1,active: 20 µM
18,Cc1nn(C(=O)c2ccco2)c(C)c1Br,"inconclusive [inhibitor, partial curve]"
19,O=C(CCCN1C(=O)/C(=C\c2ccco2)SC1=S)Nc1ccc(O)cc1C(=O)O,active: 10 µM
20,CCOc1cc(C(=S)N2CCCCC2)ccc1OCC(=O)NCc1ccccc1,inactive
21,O=P(O)(O)C#Cc1ccccc1,"inconclusive [inhibitor, partial curve]"
22,O=C1C(=O)N(CCN2CCOCC2)C(c2ccccn2)/C1=C(/O)c1ccc(Cl)cc1 (stereo unspecified),active: 20 µM
23,CC1C2(C)OC(=N)C(C#N)(C(C)O2)C1(C#N)C#N (stereo unspecified),"inconclusive [inhibitor, partial curve]"
24,CC(CNC(=O)c1cncc(O)c1)NC(=O)c1cncc(O)c1 (stereo unspecified),"inconclusive [inhibitor, single point]"
